According to PubChem BioAssay AID2451 (National Center for Advancing Translational Sciences (NCATS), 2010):
About 2,100 (0.72%) of roughly 290,000 compounds were called active. Inconclusive results, whose numbers are uncertain, are shown with a selection of clear calls. Calls follow the shape of the dose curve; as a rule, active = well fitted inhibition curve with a large enough effect; inconclusive = small, poorly fitted or top-dose-only effect, or effect the other way; inactive = flat fitted curve, though single readings scatter. Where the call is inconclusive, the potency comes from a doubtful curve fit.

target: Fructose-bisphosphate aldolase (Giardia intestinalis (strain ATCC 50803 / WB clone C6)) (UniProt A8B2U2); assay: qHTS Assay for Inhibitors of Fructose-1,6-bisphosphate Aldolase from Giardia Lamblia; conditions: purified Giardia FBPA; series mostly up to 59.6 µM; also: nearly all actives have a fitted effect of over 55% in size
Method in brief: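 40 nM FBPA preincubated 10 min at RT with compound (up to 57.5 uM final), then substrate plus GAPDH/TPI/NAD/arsenate coupling and diaphorase/resazurin added. Fluorescence read after 20 min at RT, 525/598 nm.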
Potency is read from the fitted curve at half-maximal effect; tags tell the direction and shape of the fitted curve.

Chain of UniProt A8B2U2 (A8B2U2 whole entry, looked up): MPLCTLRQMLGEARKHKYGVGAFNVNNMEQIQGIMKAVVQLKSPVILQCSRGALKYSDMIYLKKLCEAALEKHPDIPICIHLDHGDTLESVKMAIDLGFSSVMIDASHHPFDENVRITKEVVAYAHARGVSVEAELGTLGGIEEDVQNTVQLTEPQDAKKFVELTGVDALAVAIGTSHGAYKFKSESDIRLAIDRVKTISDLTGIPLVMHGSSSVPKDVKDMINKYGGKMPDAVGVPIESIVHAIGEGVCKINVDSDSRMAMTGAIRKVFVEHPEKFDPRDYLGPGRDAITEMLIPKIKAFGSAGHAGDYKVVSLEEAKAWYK

SMILES | Potency
CCOc1cc(C2C(C#N)=C(N)OC(C)=C2C(C)=O)c(Br)c(Br)c1OC(C)C (centres undefined) | inconclusive: 19.9 µM [inhibitor, single point]
CCN1c2ccccc2N(C)C1(C)c1ccccc1 (centres undefined) | inconclusive: 7.06 µM [inhibitor, partial curve]
COc1cc(C)c(CN2CCC(Cc3ccccc3)CC2)cc1C | inconclusive: 25.1 µM [inhibitor, single point]
COc1ccc2ccccc2c1C1CC(=O)N2CN(C3CCCCC3)CSC2=C1C#N (centres undefined) | inconclusive: 7.06 µM [inhibitor, partial curve]
Cc1nc2ccccc2c(=O)n1/N=C/c1ccc2ccccc2c1O | inconclusive: 15.8 µM [inhibitor, partial curve]
CCC(=O)N(C)CCc1cc2c(c(OC)c1/C=N/NC(=O)c1ccccc1O)OCO2 | inactive
Cn1c(SCC(=O)N/N=C/c2ccc([N+](=O)[O-])s2)nnc1-c1ccccc1 | inactive
COc1ccc(-c2cnnc(N/N=C/c3ccc(O)c(O)c3)n2)cc1 | inconclusive: 19.9 µM [inhibitor, partial curve]
COc1ccc(CCN(C)Cc2ccc(OCc3ccccc3)c(OC)c2)cc1OC | inconclusive: 12.6 µM [inhibitor, partial curve]
CCc1cccc(CC)c1N(COC)C(=O)Cn1nnc2ccccc21 | inactive
COc1ccc(N2C(=O)[C@@H]3[C@H](C2=O)[C@H]2c4ccccc4C=CN2[C@@H]3C(=O)Nc2ccccc2)cc1 | inconclusive: 6.29 µM [inhibitor, partial curve]
COc1cc(C2C(C#N)=C(C)NC3=C2C(=O)CC(C)(C)C3)cc(OC)c1O (centres undefined) | inconclusive: 14.1 µM [inhibitor, partial curve]
Cc1ccc2cccc(S(=O)(=O)Nc3ccc4c(c3)OCO4)c2n1 | inconclusive: 15.8 µM [inhibitor, partial curve]
CCOc1ccc(-c2ccc(/C=C3/C(=N)N4C=CSC4=NC3=O)o2)c([N+](=O)[O-])c1 | inconclusive: 2.51 µM [inhibitor, full curve]
Cc1ccc(NC(=O)CCNS(=O)(=O)c2ccc3[nH]c(=O)oc3c2)c(Cl)c1 | inconclusive: 25.1 µM [inhibitor, partial curve]
CCOC(=O)CNC(=O)C1CCN(S(=O)(=O)c2ccc(-c3nn[nH]n3)cc2)CC1 | inconclusive: 39.8 µM [inhibitor, single point]
CCOc1ccc(NC(=O)CCC(=O)c2ccc(F)cc2)cc1 | inactive
CC(=O)Nc1ccc(S(=O)(=O)N2CCN(Cc3cccnc3)CC2)cc1 | inconclusive: 17.7 µM [inhibitor, single point]
COc1cc(NC(=O)c2ccccc2)c(OC)cc1NC(=O)CN1CCOCC1 | inconclusive: 25.1 µM [inhibitor, single point]
COc1ccc(C(=O)/C=C/c2cc(OC)c(O)c(OC)c2)c(F)c1 | inconclusive: 15.8 µM [inhibitor, partial curve]
N/C(CCS(=O)(=O)c1ccc(Cl)cc1)=N\OC(=O)c1ccccc1C(F)(F)F | inactive
Cc1ccc(/C(C#N)=C\c2ccc(N3CCOCC3)o2)cc1 | inconclusive: 14.1 µM [inhibitor, partial curve]
CN(C(=O)c1ccoc1)c1ccccc1I | inactive
Cc1ccccc1C(=O)c1cccn1CC(=O)NCCN1CCN(c2cccc(C)c2C)CC1 | inactive
COc1ccccc1C1SCCN1S(C)(=O)=O (centres undefined) | inconclusive: 8.89 µM [inhibitor, partial curve]

SMILES | Potency
ONC(=Nc1ccccc1Cl)c1ccccc1Cl | inconclusive: 22.3 µM [inhibitor, partial curve]
CC(=O)/C(=C\Nc1ccc(OCc2ccccc2)cc1)c1ccccc1 | inactive
COc1ccccc1C(=O)n1nc(-c2ccccc2)nc1NCc1ccco1 | inactive
c1ccc(-n2nnnc2-n2nnc3ccccc32)cc1 | inactive
c1cncc(-c2nnc(-c3cccnc3)nn2)c1 | inconclusive: 3.54 µM [inhibitor, full curve]
COc1ccc(OC)c(C2C(C(=O)c3cccs3)=C(O)C(=O)N2c2cc(C)on2)c1 (centres undefined) | inconclusive: 28.1 µM [inhibitor, single point]
COc1ccccc1N1CCNC(C)C1=O (centres undefined) | inconclusive: 25.1 µM [inhibitor, single point]
CCCn1c(N)c(N(CCOC)C(=O)c2ccc([N+](=O)[O-])cc2Cl)c(=O)[nH]c1=O | inactive
Cc1cc(Br)ccc1OCCNCc1ccccc1 | inconclusive: 19.9 µM [inhibitor, partial curve]
CC12CCC(=O)N1c1c(sc3nc(N4CCOCC4)c4c(c13)CCCC4)C(=O)N2 (centres undefined) | inconclusive: 22.3 µM [inhibitor, single point]
CCc1ccc(CN2CCC(C(=O)Nc3ccc(Oc4ccccc4)nc3)CC2)o1 | inactive
COCCNC(=O)c1c(NC(=O)c2ccco2)n(Cc2ccccc2)c2nc3ccccc3nc12 | inconclusive: 19.9 µM [inhibitor, partial curve]
COc1cc(Br)cc(/C=C/c2ccc3cccc(O)c3n2)c1O | inactive
CCCCCOC(=O)CCN1C(=O)/C(=C2\SC(=S)N(CCC(=O)OCCCCC)C2=O)SC1=S | inactive
CCCN1C2CCCC1CC(NC(=O)Nc1cccc(C(C)=O)c1)C2 (centres undefined) | inactive
COC(=O)C(C)Sc1nc(N)c(NC(=O)c2ccco2)c(=O)[nH]1 (centres undefined) | inconclusive: 15.8 µM [inhibitor, partial curve]
CC(C)c1ccccc1-n1cc[nH]c1=S | inconclusive: 17.7 µM [inhibitor, partial curve]
CCCC(=O)Nc1ccc2c(c1)nc(CN1CCN(C(=O)OCC)CC1)n2C | inactive
O=C(COc1ccccc1)NNC(=S)NC(=O)c1ccc(Cl)cc1Cl | inconclusive: 15.8 µM [activator, partial curve]
CC(=O)Nc1ccc(N/C=C/C(=O)C(C)(C)C)cc1 | inconclusive: 44.6 µM [inhibitor, single point]
O=C(O)CCNc1cc2ccccc2cc1C(=O)O | active: 4.46 µM
COc1cc(/C=C(\C#N)C(=O)c2ccc(O)c(O)c2)cc(I)c1O | inconclusive: 15.8 µM [inhibitor, partial curve]
CSc1ccc(NC(=O)NCCN2CCc3ccccc3C2)cc1 | inconclusive: 31.5 µM [inhibitor, single point]
CC(/C=N\NC(=O)CN1CCN(Cc2ccccc2)CC1)=C\c1ccco1 | inconclusive: 14.1 µM [inhibitor, partial curve]
O=[N+]([O-])c1cccc(C2NCC(c3ccccc3Cl)c3c2[nH]c2ccccc32)c1 (centres undefined) | inactive

SMILES | Potency
O=C(c1cnc2nc3ccccc3n2c1)c1cc(F)ccc1O | inactive
CCOc1ncccc1C(=O)Nc1nc(SC)ns1 | inactive
Cc1ccc(C)c(/C(O)=C2/C(=O)C(=O)N(CCN3CCOCC3)C2c2ccc(C)o2)c1 (centres undefined) | inactive
COc1ccc(C)cc1NC(=O)CSc1nc2ccccc2nc1N1CC(C)OC(C)C1 (centres undefined) | inactive
Cc1ccc2nc(Cc3ccc(N)cc3)[nH]c2c1 | inconclusive: 17.7 µM [inhibitor, single point]
COc1ccc(/C=N/Nc2nnc(C)n2N)cc1OC | active: 22.3 µM
Clc1ccccc1CN(Cc1ccccc1)c1ncnc2nc[nH]c12 | inconclusive: 17.7 µM [activator, single point]
O=C(NC(=S)Nc1ncccn1)c1ccc(F)cc1 | active: 6.31 µM
CCOC(=O)C1CCN(CC(=O)Nc2cc(S(=O)(=O)N3CCOCC3)ccc2C)CC1 | inconclusive: 15.8 µM [inhibitor, partial curve]
CCc1nnc(NC(=O)CN2CCN(CC)CC2)s1 | active: 3.55 µM
CCCOc1ccc(CNC(=O)Cn2c(=O)oc3ccccc32)cc1 | inactive
O=C1CC(c2ccc(Cl)cc2)CC(=O)C1CS(=O)(=O)c1ccccc1 (centres undefined) | inconclusive: 15.8 µM [inhibitor, single point]
O=[N+]([O-])c1cc(S(=O)(=O)N2CCCC2)ccc1O | inactive
CCOc1cc(N2CCOCC2)c(OCC)cc1NC(=O)C(C)C | inconclusive: 6.29 µM [inhibitor, partial curve]
Cc1cccc(CN2CCCC(C(=O)N3CCCCC3)C2)c1 (centres undefined) | inconclusive: 17.8 µM [inhibitor, partial curve]
O=C(O)CCNc1cc(N2CCN(C(=O)c3ccco3)CC2)c2noc3c2c1C(=O)c1ccccc1-3 | inconclusive: 7.08 µM [inhibitor, partial curve]
CCOC(=O)c1ccc(N=c2sc(C(=O)OC)cc(=O)n2C2CC2)cc1 | inactive
CCOc1cccc(CNCc2ccncc2)c1 | inconclusive: 25.1 µM [inhibitor, single point]
O=C(CN1CCCC1)Nc1c2c(nc3ccccc13)N(Cc1ccccc1)CC2 | inconclusive: 17.7 µM [inhibitor, single point]
COC(=O)c1c(C)oc(C)c1S(=O)(=O)NCc1cccs1 | inactive
O=C(N/N=C/c1sc(N2CCCCC2)nc1-c1cccs1)C1CC1 | inconclusive: 15.8 µM [inhibitor, single point]
CSc1cccc(NC(=S)NC(=O)c2cccnc2)c1 | inconclusive: 3.16 µM [inhibitor, partial curve]
Cc1cccc(C(=O)NNC(=O)c2ccc(Cl)cc2)c1O | inconclusive: 11.2 µM [inhibitor, partial curve]
CCCC1C2CN(C(C)C)CC=C2C(C#N)=C(N)C1(C#N)C#N (centres undefined) | inconclusive: 11.2 µM [inhibitor, partial curve]
